Results published in PubChem BioAssay AID894 (National Center for Advancing Translational Sciences (NCATS), 2007).
Values joined by “and” are separate entries in the source; they are usually repeats but may differ in a detail not shown here. Equal values may be shown once. The whole screen tested about 150,000 compounds, of which about 6,500 (4.3%) were called active. Inconclusive results, whose numbers are uncertain, are shown with a selection of clear calls. The call rests on the fitted dose curve; in most records, active means well fitted inhibition curve with a large enough effect (not every such curve was filed as active); inconclusive means small, poorly fitted or top-dose-only effect, or another doubt; inactive means no such curve, though single readings can be large or run the other way. Potencies of inconclusive entries are left out as doubtful fits.
On the % scale 0 is the no-effect control and ±100 the full control effect; potency means the concentration at half of the fitted maximal effect; tags describe the fitted curve by direction and shape.

What follows are molecules tested against 15-hydroxyprostaglandin dehydrogenase [NAD(+)] (Homo sapiens) (UniProt P15428) (assay: qHTS Assay for Inhibitors of HPGD (15-Hydroxyprostaglandin Dehydrogenase)). Conditions: purified HPGD, NADH fluorescence kinetic, PGE2 substrate; activity change, negative = inhibition: stronger effect = lower value.
Sequence of UniProt P15428 (P15428 whole entry, looked up): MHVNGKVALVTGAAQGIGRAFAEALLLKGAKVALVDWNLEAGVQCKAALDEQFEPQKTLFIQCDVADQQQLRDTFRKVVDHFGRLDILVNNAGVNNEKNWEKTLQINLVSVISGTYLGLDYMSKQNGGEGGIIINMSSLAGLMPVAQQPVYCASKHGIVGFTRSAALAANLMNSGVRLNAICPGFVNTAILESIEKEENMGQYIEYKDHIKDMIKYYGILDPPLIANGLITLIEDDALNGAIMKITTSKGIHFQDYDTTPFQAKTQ
Summary of the method: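 20 nM HPGD preincubated 15 min at room temperature with compound in 50 mM Tris-HCl pH 8, 0.01% Tween 20. Started with 1 mM NAD+ and 30 uM prostaglandin E2; NADH fluorescence (360/450 nm) read 5 times over 30-s intervals, last minus first.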
With `CC1CN(c2ccccc2)C(=O)CS1` (stereo not given) the Potency was active: 15.8 µM. `COc1ccc(-c2nc(C#N)c(NC(C)C)o2)cc1` was tested, and the Potency was inconclusive [inhibitor, partial curve]. For `O=C(CSc1nnc(SCc2ccccc2)s1)NNC(=S)Nc1ccccc1`, the Potency was active: 10 µM. `Cc1ccc(C)c(-n2c(C)cc(/C=N/NC(=O)c3c(C)nc4cc(C)ccn34)c2C)c1` was tested, and the Potency was inconclusive [inhibitor, partial curve]. With `CCOc1ccccc1-n1c(SCC(N)=O)nnc1-c1ccco1` the activity change, negative = inhibition was inactive: -14.3%. For `CCCCn1c(=O)n(C)c(=O)c2c(C(F)(F)F)cc(-c3ccncc3)nc21`, the Potency was inconclusive [inhibitor, partial curve]. For `CCCCS(=O)(=O)Nc1ccc2ncn(C)c(=O)c2c1`, the Potency was inconclusive [inhibitor, partial curve]. For `NC(=O)c1c(NC(=O)c2ccco2)sc2c1CCC2`, the Potency was inconclusive [inhibitor, single point]. With `COc1cccc2c(=O)c3ccoc3n(C)c12` the Potency was inconclusive [inhibitor, partial curve]. In the case of `Cc1ccc(Sc2oc(/C=N/n3cnnc3)cc2Br)cc1`, the Potency is reported as inconclusive [inhibitor, partial curve]. In the case of `COc1cc2cc(Oc3ccc4ccc(=O)oc4c3)c(=O)oc2cc1OC1OC(COC(=O)CC(C)(O)CC(=O)O)C(O)C(O)C1O` (stereo not given), the Potency is reported as inconclusive [inhibitor, partial curve]. For `c1cnc2c(OCc3cn4cccnc4n3)cccc2c1`, the Potency was inconclusive [inhibitor, single point]. In the case of `Cc1onc(-c2ccccc2Cl)c1C(=O)Nc1cccc2nsnc12`, the Potency is reported as inconclusive [inhibitor, single point]. In the case of `CN1CCc2nc(SCc3ccc(C(C)(C)C)cc3)c(C#N)cc2C1`, the Potency is reported as active: 28.2 µM. `CCOC(=O)/C(=C\c1cccnc1)C(=O)c1cc(C(C)=O)c(Nc2ccccc2)s1` was tested, and the Potency was active: 20 µM. In the case of `O=C(O)c1ccc(CN(c2ccccn2)S(=O)(=O)c2ccccc2)cc1`, the Potency is reported as inconclusive [inhibitor, partial curve]. For `O=C(Nc1cccc2nsnc12)c1cccs1`, the Potency was inconclusive [inhibitor, partial curve]. In the case of `O=C(NCc1nnc2n1CCCCC2)c1ccc(Cl)cc1Cl`, the Potency is reported as inconclusive [inhibitor, partial curve]. With `CCOC(=O)c1sc(NC(=O)c2cc(-c3ccccc3)nc3ccccc23)c(C#N)c1C` the Potency was active: 15.8 µM. For `Clc1ccc(Oc2cccc(/C=N/n3cnnc3)c2)cc1`, the Potency was inconclusive [inhibitor, partial curve]. With `COc1ccc(C(=O)c2coc(-c3ccccc3C(=O)O)c2C(=O)O)cc1` the activity change, negative = inhibition was inactive: -11.3%. `CN(CC(=O)N1CCCC1)S(=O)(=O)c1cc(Cl)ccc1Cl` was tested, and the activity change, negative = inhibition was inactive: -44.7%. `Cc1cccc(CSCCNC(=O)CCSc2ccccc2)c1` was tested, and the Potency was active: 28.2 µM. With `Cc1ccc(NC(=O)/C(=C/c2cccs2)NC(=O)c2ccco2)c(C)c1` the activity change, negative = inhibition was inactive: -20.8%. `Brc1cc2[nH]cnc2c2ccccc12` was tested, and the Potency was active: 22.4 µM. For `Cc1csc(NC(=O)CCCSc2nc3ccccc3s2)n1`, the Potency was active: 14.1 µM. In the case of `COc1cccc([C@@H]2Oc3ccc(OC)cc3C(=O)[C@H]2OC(=O)Nc2ccc(OC(F)F)cc2)c1`, the activity change, negative = inhibition is reported as inactive: -8.11%. For `O=C(CC1Nc2ccccc2NC1=O)NCC1COc2ccccc2O1` (stereo not given), the Potency was inconclusive [inhibitor, partial curve]. `COc1ccc(C(NC(=O)/C=C/c2ccco2)c2ccc(OC)cc2)cc1` was tested, and the Potency was inconclusive [inhibitor, partial curve]. With `c1csc(CCNc2ncnc3sc4c(c23)CCC4)c1` the Potency was inconclusive [inhibitor, single point]. For `Cc1ccc(-c2ccc(C(=O)NCc3ccccc3)o2)c2ccccc12`, the Potency was inconclusive [inhibitor, partial curve]. For `Cc1cccc(C(=O)N[C@H](C(=O)OCc2cc(=O)n3c(n2)sc2ccccc23)C(C)C)c1`, the Potency was inconclusive [inhibitor, single point]. With `COc1cccc(-c2nc(NCC3CCCO3)c3ccccc3n2)c1O` (stereo not given) the activity change, negative = inhibition was inactive: -9.78%. In the case of `O=c1oc2ccccc2cc1-c1nc2c(s1)CCc1ccccc1-2`, the Potency is reported as inconclusive [inhibitor, partial curve]. For `COc1cc(CNC(=O)CCCC/C=C\C(C)C)ccc1O`, the activity change, negative = inhibition was inactive: -18.9% and inactive: -21.6% and inactive: -7.54%. With `CCc1nc2c(oc3ccccc32)c(=O)[nH]1` the activity change, negative = inhibition was inactive: -16.7%. For `CCCCn1c(SCC(=O)Nc2cc(C)on2)nc2ccccc2c1=O`, the Potency was inconclusive [inhibitor, partial curve]. With `CN(c1ccc(O)cc1)c1nc(-c2ccccc2)cs1` the Potency was active: 15.8 µM. With `CC1(C)Cn2c(nnc2-c2ccccc2)S1` the Potency was active: 15.8 µM. With `Cc1cccc(-n2c(C)cc(/C=C3\C(=N)N4N=C(CC(C)C)SC4=NC3=O)c2C)c1` the Potency was inconclusive [inhibitor, partial curve]. `O=C(CSC1=Nc2ccccc2C2=NC(CC(=O)NCc3ccco3)C(=O)N12)NCC1CCCO1` (stereo not given) was tested, and the Potency was inconclusive [inhibitor, partial curve]. `CC(=O)N1CCN(c2nc(CC(C)C)c3c(c2C#N)CCC3)CC1` was tested, and the Potency was inconclusive [inhibitor, partial curve]. For `CCNc1nc(N)nc(Oc2ccc(OCCOc3ccc(Cl)cc3Cl)nn2)n1`, the Potency was active: 1 µM. In the case of `O=C(/C=C/c1ccc(O)c(O)c1)NC(=O)c1ccccc1O`, the Potency is reported as inconclusive [inhibitor, partial curve]. In the case of `CO[C@H]1C=CO[C@]2(C)Oc3c(C)c(O)c4c(O)c(c5c(c4c3C2=O)NC2(CCN(CC(C)C)CC2)N=5)=NC(=O)C(C)=CC=C[C@@H](C)[C@@H](O)[C@@H](C)[C@@H](O)[C@@H](C)[C@@H](OC(C)=O)[C@@H]1C`, the activity change, negative = inhibition is reported as inactive: -3.28%.
